In a collection of fitness landscapes (doi:10.1016/j.celrep.2020.107928):
Over roughly 81,000 sequences, “one-hybrid fitness for binding NBS DNA” has its median near -0.1; the highest 2% begin near 0.36. This is one part of the list.

B1: Caulobacter ParB omega fusion; a variant is named by its letters at X, in order, B8GW30 (parent)
chain: MESVVVGEPGMSEGRRGLGRGLSALLGEVDAAPAQAPGEQLGGSREAPIEILQRNPDQPRRTFREEDLEDLSNSIREKGVLQPILVRPSPDTAGEYQIVAGERAWRAAQRAGLKTVPIMVRELDDLAVLEIGIIENVQRADLNVLEEALSYKVLMEKFERTQENIAQTIGKSXSHVANXMRLLXLPDEVQSYLVSGELTAXHARAIAAAADPVALAKQIIEGGLSVRETEALARKAPNLSAGKSKGGRPPRVKDTDTQALESDLSSVLGLDVSIDHRGSTGTLTITYATLEQLDDLCNRLTRGI

Variants of: B1
Experiment: one-hybrid fitness for binding NBS DNA (the Noc-binding site; scaled: cognate 1, non-cognate 0); higher = stronger binding
Settings: with NBS DNA site
Summary of the method: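 Selection: bacterial one-hybrid in E. coli USO, HIS3 reporter with the site 19 bp from the promoter, 48 hours at 37°C on M9-minus-histidine plus 0.1 mM IPTG and 5 mM 3-AT. Libraries were Caulobacter ParB with four randomised specificity codons, sequenced on Illumina before and after selection. Fitness is the rescaled log change in variant-to-wild-type read ratio, anchored to the cognate and non-cognate sites.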

Row | Variant | one-hybrid fitness for binding NBS DNA
1 | CQSV | ≤ 0.2
2 | YVKG | ≤ 0.2
3 | LSTY | ≤ 0.2
4 | FAWS | ≤ 0.2
5 | CRVR | ≤ 0.2
6 | TLVK | ≤ 0.2
7 | TSMF | ≤ 0.2
8 | PLSW | ≤ 0.2
9 | FSDT | ≤ 0.2
10 | MFVG | ≤ 0.2
11 | PYLT | ≤ 0.2
12 | WSTW | ≤ 0.2
13 | RCGH | ≤ 0.2
14 | LLFI | ≤ 0.2
15 | VAAS | ≤ 0.2
16 | CFLE | ≤ 0.2
17 | NGAG | ≤ 0.2
18 | VQKA | ≤ 0.2
19 | NSLH | ≤ 0.2
20 | QPCY | ≤ 0.2
21 | RYSN | ≤ 0.2
22 | YYYR | ≤ 0.2
23 | QRYH | 0.486
24 | IARW | ≤ 0.2

Row | Variant | one-hybrid fitness for binding NBS DNA
25 | VTWI | ≤ 0.2
26 | QANK | ≤ 0.2
27 | RRFK | ≤ 0.2
28 | FCRS | ≤ 0.2
29 | TSIV | ≤ 0.2
30 | LYST | ≤ 0.2
31 | GRVI | ≤ 0.2
32 | SYKK | ≤ 0.2
33 | QAMW | ≤ 0.2
34 | MNLI | ≤ 0.2
35 | LAPL | ≤ 0.2
36 | GAFV | ≤ 0.2
37 | THRG | ≤ 0.2
38 | SMIR | ≤ 0.2
39 | SMQM | ≤ 0.2
40 | RCRF | ≤ 0.2
41 | VNKE | ≤ 0.2
42 | MAHT | ≤ 0.2
43 | DIHI | ≤ 0.2
44 | QFAC | ≤ 0.2
45 | RWYG | ≤ 0.2
46 | LSWW | ≤ 0.2
47 | PADK | ≤ 0.2
48 | LLHA | ≤ 0.2

Row | Variant | one-hybrid fitness for binding NBS DNA
49 | LYKD | ≤ 0.2
50 | WELS | ≤ 0.2
51 | CPVT | ≤ 0.2
52 | RERV | ≤ 0.2
53 | ALCN | ≤ 0.2
54 | CSQC | ≤ 0.2
55 | FSAG | ≤ 0.2
56 | NDAV | ≤ 0.2
57 | MQCC | ≤ 0.2
58 | NHRI | ≤ 0.2
59 | IYRF | ≤ 0.2
60 | IWRK | ≤ 0.2
61 | TNIL | ≤ 0.2
62 | YRAN | ≤ 0.2
63 | QHLK | ≤ 0.2
64 | QMMQ | ≤ 0.2
65 | VNIR | ≤ 0.2
66 | KRMC | ≤ 0.2
67 | ASSW | ≤ 0.2
68 | QRTA | 0.6
69 | DLRC | ≤ 0.2
70 | ESPT | ≤ 0.2
71 | RYTS | 0.453
72 | RYYD | ≤ 0.2

Row | Variant | one-hybrid fitness for binding NBS DNA
73 | TPEV | ≤ 0.2
74 | QVAH | ≤ 0.2
75 | RSEV | ≤ 0.2
76 | ILLL | ≤ 0.2
77 | QMAG | ≤ 0.2
78 | DNKD | ≤ 0.2
79 | DMYI | ≤ 0.2
80 | GRSE | ≤ 0.2
81 | SYLI | ≤ 0.2
82 | RTLA | ≤ 0.2
83 | MHSC | ≤ 0.2
84 | SNDT | ≤ 0.2
85 | LPAA | ≤ 0.2
86 | FLEL | ≤ 0.2
87 | NAWT | ≤ 0.2
88 | NDAL | ≤ 0.2
89 | QYDW | ≤ 0.2
90 | MHSS | ≤ 0.2
91 | QAVW | ≤ 0.2
92 | LLHM | ≤ 0.2
93 | VVML | ≤ 0.2
94 | QDLE | ≤ 0.2
95 | SVMR | ≤ 0.2
96 | FAYS | ≤ 0.2

Row | Variant | one-hybrid fitness for binding NBS DNA
97 | DWHW | ≤ 0.2
98 | YPGS | ≤ 0.2
99 | TYLY | ≤ 0.2
100 | RDMM | ≤ 0.2
101 | QGFV | ≤ 0.2
102 | RLWD | ≤ 0.2
103 | DLRM | ≤ 0.2
104 | RVYS | 0.351
105 | GMQF | ≤ 0.2
106 | QYKN | 0.366
107 | IVVR | ≤ 0.2
108 | AMHW | ≤ 0.2
109 | RSCP | ≤ 0.2
110 | VIMS | ≤ 0.2
111 | QSLE | ≤ 0.2
112 | QESE | ≤ 0.2
113 | QTNG | 0.286
114 | TLPN | ≤ 0.2
115 | RITL | ≤ 0.2
116 | RDTY | ≤ 0.2
117 | TWNN | ≤ 0.2
118 | CQYG | ≤ 0.2
119 | LPDD | ≤ 0.2
120 | VVST | ≤ 0.2

Row | Variant | one-hybrid fitness for binding NBS DNA
121 | QCYH | 0.257
122 | QSNN | ≤ 0.2
123 | SCAL | ≤ 0.2
124 | MVFD | ≤ 0.2
125 | QTIS | 0.398
126 | QYEE | ≤ 0.2
127 | MRRY | ≤ 0.2
128 | WDNG | ≤ 0.2
129 | RVQE | ≤ 0.2
130 | HLFA | ≤ 0.2
131 | NLGC | ≤ 0.2
132 | TLIH | ≤ 0.2
133 | ATAA | ≤ 0.2
134 | LAGW | ≤ 0.2
135 | QEER | ≤ 0.2
136 | DFPS | ≤ 0.2
137 | AEVD | ≤ 0.2
138 | GLKV | ≤ 0.2
139 | SACD | ≤ 0.2
140 | PWDA | ≤ 0.2
141 | PHRI | ≤ 0.2
142 | SFRV | ≤ 0.2
143 | FTNN | ≤ 0.2
144 | RMRR | 0.736

Row | Variant | one-hybrid fitness for binding NBS DNA
145 | DAGN | ≤ 0.2
146 | WVGM | ≤ 0.2
147 | RLGD | ≤ 0.2
148 | PQAG | ≤ 0.2
149 | VGKH | ≤ 0.2
150 | RSTC | ≤ 0.2
151 | MDAM | ≤ 0.2
152 | KLPN | ≤ 0.2
153 | TRMM | ≤ 0.2
154 | TCHT | ≤ 0.2
155 | RMTA | ≤ 0.2
156 | NIHC | ≤ 0.2
157 | AAWT | ≤ 0.2
158 | CKGG | ≤ 0.2
159 | IDKR | 0.338
160 | QGHC | ≤ 0.2
161 | YPWV | ≤ 0.2
162 | LRMF | ≤ 0.2
163 | GPKL | ≤ 0.2
164 | YRLT | ≤ 0.2
165 | DKFG | ≤ 0.2
166 | ACRP | ≤ 0.2
167 | TSIP | ≤ 0.2
168 | RNGW | ≤ 0.2

Row | Variant | one-hybrid fitness for binding NBS DNA
169 | INQT | ≤ 0.2
170 | SRSP | ≤ 0.2
171 | YPFT | ≤ 0.2
172 | SSTT | ≤ 0.2
173 | CQEI | ≤ 0.2
174 | SYAD | ≤ 0.2
175 | STDG | ≤ 0.2
176 | LLHQ | ≤ 0.2
177 | KPIF | ≤ 0.2
178 | KTPH | ≤ 0.2
179 | SYSM | ≤ 0.2
180 | DTPI | ≤ 0.2
181 | WHGV | ≤ 0.2
182 | ATLG | ≤ 0.2
183 | WMAS | ≤ 0.2
184 | RKAN | ≤ 0.2
185 | NQTA | ≤ 0.2
186 | YSLA | ≤ 0.2
187 | LRAY | ≤ 0.2
188 | ELTT | ≤ 0.2
189 | GSSW | ≤ 0.2
190 | HYWG | ≤ 0.2
191 | ACPA | ≤ 0.2
192 | HLIF | ≤ 0.2

Row | Variant | one-hybrid fitness for binding NBS DNA
193 | EARQ | ≤ 0.2
194 | QCWC | ≤ 0.2
195 | SIDG | ≤ 0.2
196 | WCNL | ≤ 0.2
197 | QPCL | ≤ 0.2
198 | YASA | ≤ 0.2
199 | VHII | ≤ 0.2
200 | RFVC | ≤ 0.2
201 | YPAV | ≤ 0.2
202 | QTAQ | 0.251
203 | YNKS | ≤ 0.2
204 | RMDP | ≤ 0.2
205 | CFKG | ≤ 0.2
206 | NESM | ≤ 0.2
207 | NRVM | ≤ 0.2
208 | STSD | ≤ 0.2
209 | SYGM | ≤ 0.2
210 | VGER | ≤ 0.2
211 | DLYD | ≤ 0.2
212 | TGGT | ≤ 0.2
213 | REYM | ≤ 0.2
214 | IPRG | ≤ 0.2
215 | LPLY | ≤ 0.2
216 | HVWM | ≤ 0.2

Row | Variant | one-hybrid fitness for binding NBS DNA
217 | AGDD | ≤ 0.2
218 | ASQY | ≤ 0.2
219 | KHQP | ≤ 0.2
220 | MRRK | ≤ 0.2
221 | IHMM | ≤ 0.2
222 | PSFT | ≤ 0.2
223 | VPDC | ≤ 0.2
224 | WGCS | ≤ 0.2
225 | KYAG | ≤ 0.2
226 | NKTG | ≤ 0.2
227 | WPNR | ≤ 0.2
228 | SGSG | ≤ 0.2
229 | AKEK | ≤ 0.2
230 | NFTQ | ≤ 0.2
231 | PEMM | ≤ 0.2
232 | YYNE | ≤ 0.2
233 | RCWS | 0.388
234 | NSHR | 0.214
235 | ARAS | ≤ 0.2
236 | TESV | ≤ 0.2
237 | VSKT | ≤ 0.2
238 | GHPC | ≤ 0.2
239 | DPMM | ≤ 0.2
240 | HPNI | ≤ 0.2

Row | Variant | one-hybrid fitness for binding NBS DNA
241 | WHGK | ≤ 0.2
242 | QSNG | ≤ 0.2
243 | VKHR | ≤ 0.2
244 | IYVV | ≤ 0.2
245 | LKSH | ≤ 0.2
246 | IFNS | ≤ 0.2
247 | QIWT | 0.255
248 | TYVH | ≤ 0.2
249 | QYGK | ≤ 0.2
250 | FDEG | ≤ 0.2
251 | LGNF | ≤ 0.2
252 | NKRY | ≤ 0.2
253 | EPIY | ≤ 0.2
254 | DKKR | ≤ 0.2
255 | ECGG | ≤ 0.2
256 | VFQE | ≤ 0.2
257 | TLAH | ≤ 0.2
258 | YLKV | ≤ 0.2
259 | QSQW | ≤ 0.2
260 | GSES | ≤ 0.2
261 | TECW | ≤ 0.2
262 | EVTR | ≤ 0.2
263 | YRYW | ≤ 0.2
264 | VKSR | ≤ 0.2

Row | Variant | one-hybrid fitness for binding NBS DNA
265 | YYAR | ≤ 0.2
266 | RSVN | ≤ 0.2
267 | PHVF | ≤ 0.2
268 | LWRN | ≤ 0.2
269 | QFIS | ≤ 0.2
270 | LPCC | ≤ 0.2
271 | LRQS | ≤ 0.2
272 | TGTG | ≤ 0.2
273 | TMIV | ≤ 0.2
274 | HKEC | ≤ 0.2
275 | YFCS | ≤ 0.2
276 | HICS | ≤ 0.2
277 | KEPR | ≤ 0.2
278 | GDAL | ≤ 0.2
279 | EFNS | ≤ 0.2
280 | KKNI | ≤ 0.2
281 | TDYY | ≤ 0.2
282 | RWIL | ≤ 0.2
283 | VEYW | ≤ 0.2
284 | NCKR | 0.222
285 | PVVY | ≤ 0.2
286 | MGVR | ≤ 0.2
287 | LRRW | ≤ 0.2
288 | MVGR | ≤ 0.2

Row | Variant | one-hybrid fitness for binding NBS DNA
289 | TSNF | ≤ 0.2
290 | HKDY | ≤ 0.2
291 | MHTG | ≤ 0.2
292 | HCVY | ≤ 0.2
293 | QKCL | ≤ 0.2
294 | LKGR | ≤ 0.2
295 | RSIY | ≤ 0.2
296 | TTSF | ≤ 0.2
297 | SHAD | ≤ 0.2
298 | GPAE | ≤ 0.2
299 | GPSM | ≤ 0.2
300 | CRSY | ≤ 0.2
301 | SKTM | ≤ 0.2
302 | VHWR | ≤ 0.2
303 | SSLE | ≤ 0.2
304 | WPPS | ≤ 0.2
305 | QCTP | ≤ 0.2
306 | RAHI | ≤ 0.2
